Measured values reported in PubChem BioAssay AID588855 (National Center for Advancing Translational Sciences (NCATS), 2011).
The whole screen tested about 410,000 compounds, of which about 5,000 (1.2%) were called active. The shares of active, inactive and inconclusive entries below differ from those in the screen. Calls come from the whole dose curve; as a rule, active = well fitted inhibition curve with a large enough effect; inconclusive = small, poorly fitted or top-dose-only effect; inactive = no such curve, though single readings can be large or run the other way. A potency beside an inconclusive call is a rough fit, not a confirmed value.

Assay: qHTS for Inhibitors of TGF-b; note: nearly all actives have a fitted effect of over 65% in size
Settings: HepG2 CAGA-GFP TGF-b/SMAD3 reporter, GFP fluorescence, 18 h, TGF-beta stimulated, 500 pg/mL final; series mostly up to 46.1 µM
In short: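 Per well, imaged GFP fluorescence of HEPG2 CAGA-GFP cells gives the signal; cells get compound, then TGF-beta (500 pg/mL final), 18 h at 37 degrees C; %Activity versus -TGF-beta and +DMSO controls.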
Potency is the fitted concentration of half-maximal effect; tags give direction and shape of the fitted curve.

Row | SMILES | Potency
1 | CC(=O)N(Cc1cccnc1)c1nc2c(F)cc(F)cc2s1 | inactive
2 | CCn1cnc2sc(C(=O)N(Cc3ccc(N(C)C)cc3)Cc3ccco3)c(C)c2c1=O | inactive
3 | COc1ccc(Cl)cc1NS(=O)(=O)c1ccc2[nH]c3c(c2c1)CCCC3 | inconclusive: 35.5 µM [inhibitor, single point]
4 | CC1C(C)N(C(=O)CCl)c2ccccc2N1C(=O)CCl (stereo not drawn) | inconclusive: 35.5 µM [inhibitor, single point]
5 | C[C@H](NC(=O)c1nc[nH]c1C(=O)N[C@H](C)c1ccccc1)C(=O)OCc1ccccc1 | inconclusive: 5.62 µM [inhibitor, single point]
6 | Cc1ccc(S(=O)(=O)NCCCN2CCOCC2)cc1C | inactive
7 | COC(=O)Cc1ccc(NC(=S)N2CCN(c3ccc(OC)cc3)CC2)cc1 | inconclusive: 20 µM [inhibitor, single point]
8 | CSC(=S)N/N=C/c1ccc(Br)cc1 | inconclusive: 35.5 µM [inhibitor, single point]
9 | Fc1ccc(NC(=S)Nc2ccc(Br)cc2)cc1 | inconclusive: 5.62 µM [inhibitor, partial curve, poor fit]
10 | Oc1ccccc1C=NNc1nc2ccccc2s1 | inconclusive: 31.6 µM [inhibitor, single point]
11 | NC(=S)N/N=C/c1ccc(-c2cccc([N+](=O)[O-])c2)o1 | inconclusive: 15.8 µM [inhibitor, single point]
12 | COc1cc(/C=C/c2nc(C#N)c(N3CCCCCC3)o2)cc(OC)c1OC | inactive
13 | CCc1nc(NC2CCCCC2)c(C#N)c2c1COC(C)(C)C2 | inconclusive: 35.5 µM [inhibitor, partial curve, poor fit]
14 | O=C(c1ccccc1)c1ccc(OCC(O)CNCc2ccc(Cl)cc2)cc1 (stereo not drawn) | inconclusive: 35.5 µM [inhibitor, single point]
15 | COc1ccc(OC)c(NC(=O)Cn2cnc3ccc(S(=O)(=O)N4CCC(C)CC4)cc3c2=O)c1 | inactive
16 | CCCCNc1c(-c2cccc(-c3ccc(OC)cc3)c2)nc2cc(C)ccn12 | inconclusive: 22.4 µM [inhibitor, single point]
17 | Cc1ccccc1NC(=O)c1nc(S(C)(=O)=O)ncc1Cl | active: 15.8 µM
18 | O=Cc1cn(CC(=O)Nc2ccc3c(c2)OCO3)c2ccccc12 | active: 7.08 µM
19 | CCN(CC)CC(C)CNC(=O)c1cc(-c2ccc(Br)s2)nc2ccccc12 (stereo not drawn) | inconclusive: 20 µM [inhibitor, single point]
20 | CCN(CC)c1ccc(S(=O)(=O)N2CCOCC2)cc1NC(=O)Nc1ccccc1 | inconclusive: 17.8 µM [inhibitor, partial curve, poor fit]
21 | CN1CCOc2cc(S(=O)(=O)Nc3ccc(F)cc3)ccc21 | inconclusive: 35.5 µM [inhibitor, single point]
22 | CCCCCCNC(=O)O[C@H]1CN(C(=O)OC(C)C)N(C(=O)OC(C)C)[C@@H]2CN(S(=O)(=O)c3ccc(C)cc3)C[C@]12O | inconclusive: 11.2 µM [inhibitor, partial curve, poor fit]

Row | SMILES | Potency
23 | CCCn1c(=O)sc2cc(NC(=O)COc3ccc(Cl)cc3)ccc21 | inconclusive: 35.5 µM [inhibitor, single point]
24 | CC1CCC(NC(=O)c2ccc3c(c2)N(Cc2cccc(Cl)c2)C(=O)c2ccccc2S3(=O)=O)CC1 (stereo not drawn) | inconclusive: 20 µM [inhibitor, single point]
25 | Cc1ccc(C(=O)NC(=S)NNC(=O)COc2ccccc2C)cc1 | inactive
26 | CCOC(=O)C1C(C(=O)OC)=C(c2ccc(OC)cc2)c2ccccc2N1S(=O)(=O)C(F)(F)F (stereo not drawn) | inconclusive: 22.4 µM [inhibitor, single point]
27 | Cc1cccc(NC2=C(NCCO)C(=O)c3ccccc3C2=O)c1 | inconclusive: 22.4 µM [inhibitor, single point]
28 | O=C(/C=C/c1ccc(O)c(O)c1)NC(=O)c1ccccc1O | inactive
29 | CC(=O)N1CCN(c2nc(CC(C)C)c3c(c2C#N)CCC3)CC1 | inactive
30 | COc1ccc(Br)cc1S(=O)(=O)N(CC(=O)N1CCOCC1)c1ccccc1 | inactive
31 | Cc1ccc(S(=O)(=O)NCCCNS(=O)(=O)c2ccc(C)cc2)cc1 | inconclusive: 3.98 µM [inhibitor, partial curve]
32 | CCN(CC)c1ccc(N=Cc2ccccc2[N+](=O)[O-])cc1 | inconclusive: 17.8 µM [inhibitor, single point]
33 | CCOc1ccccc1N1CCN(C(=O)c2c(CC)noc2C)CC1 | inconclusive: 3.16 µM [inhibitor, partial curve, poor fit]
34 | COc1ccc(C(=O)N2CCN(Cc3cc(=O)n4nc(-c5ccccc5C)sc4n3)CC2)cc1OC | inactive
35 | COc1ccc(C=CC(=O)c2ccc(OC)c(OC)c2)cc1O | inconclusive: 35.5 µM [inhibitor, single point]
36 | Cc1cccc(OCCCSc2nc3ccc(C)cc3[nH]2)c1 | inconclusive: 35.5 µM [inhibitor, single point]
37 | CCN1CCN(CCNC(=O)c2ccc(/C=C3\Sc4ccccc4N(Cc4ccccc4F)C3=O)cc2)CC1 | inconclusive: 31.6 µM [inhibitor, single point]
38 | COc1ccc(-c2nc(Cn3c(SCc4ccccc4F)nc4ccncc43)c(C)o2)cc1 | inactive
39 | CCCc1c(NC(=O)Nc2ccc(F)cc2)cnn1-c1ccc(Cl)cc1 | inconclusive: 22.4 µM [inhibitor, single point]
40 | CCCCN(C=O)c1c(CC)nc2c(OCc3cc(Cl)cc(Cl)c3)cccn12 | inconclusive: 35.5 µM [inhibitor, single point]
41 | O=S(Cc1ccc(Br)cc1)Cc1nnc(SCc2c(F)cccc2Cl)n1-c1ccccc1 (stereo not drawn) | inconclusive: 5.01 µM [inhibitor, full curve]
42 | Cc1ccc(S(=O)(=O)N2CCCCC2)cc1NC(=O)COC(=O)CNC(=O)c1cc(Cl)cc([N+](=O)[O-])c1 | inactive
43 | Cc1cccc(C(=O)N[C@H](C(=O)OCc2cc(=O)n3c(n2)sc2ccccc23)C(C)C)c1 | inconclusive: 35.5 µM [inhibitor, single point]
